Data: the supplement of paper PMC6206098
± gives the uncertainty stated by the source. Shown are siRNA guide strands that differ only in the seed, positions 2 to 7.

Assays:
3LL = test: cell viability relative to siNT1 control; higher = less toxic; settings: concentration: 10 nM; 96 h; Mus musculus;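 note: Luminescence-based viability of cells reverse transfected in 384-well plates with lipid-complexed siRNAs built on a non-toxic 19mer backbone whose passenger strand carries 2′-O-methyl groups at positions 1 and 2, triplicates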
Procedure: (§1)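 Arrayed screen of 4096 siRNA duplexes, each carrying one of all possible 6mer seeds at guide-strand positions 2-7 in a fixed neutral 19mer scaffold (constant flanks: U at position 1, then ACAUGUAAACCA, plus a 3' AA overhang). The passenger strand is 2'-O-methylated at positions 1-2 so only the guide strand loads into RISC. Duplexes were reverse-transfected at 10 nM with RNAiMAX in triplicate in 384-well plates; viability was read by CellTiter-Glo ATP content 96 h after transfection. Values are % viability normalised to lipid-only wells (HeyA8, H460, M565) or to siNT1 (3LL).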

H460 = test: cell viability relative to lipid-only control; HeyA8 human ovarian and H460 human lung cancer; M565 mouse liver and 3LL mouse lung cancer; siNT1 is a non-toxic control siRNA; higher = less toxic; settings: concentration: 10 nM; 96 h; Homo sapiens
Procedure: as §1

HeyA8 = test: as above; settings: concentration: 10 nM; 96 h; Homo sapiens
Procedure: as §1

M565 = test: as above; settings: concentration: 10 nM; 96 h; Mus musculus
Procedure: as §1
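Throughout, for cell viability relative to lipid-only control: reverse lipid transfection in 384-well plates, in triplicate, of duplexes on a non-toxic 19mer backbone with passenger strand 2′-O-methylated at positions 1 and 2, luminescence viability read-out.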

Sequence	cell viability (3LL) [%]	cell viability (H460) [%]	cell viability (HeyA8) [%]	cell viability (M565) [%]
UGGAACAACAUGUAAACCAAA	78 ± 8.8	77.2 ± 11	79.9 ± 3.5	17.1 ± 1.2
UAUCUUAACAUGUAAACCAAA	122 ± 18	80.1 ± 13	106 ± 5.2	104 ± 19
UCCUUAUACAUGUAAACCAAA	99.9 ± 19	89.6 ± 2.9	71.4 ± 7.2	91.8 ± 5.2
UGUGUUAACAUGUAAACCAAA	78.9 ± 3.8	56.2 ± 8.4	69.1 ± 10	52.8 ± 11
UGCACAGACAUGUAAACCAAA	51.8 ± 12	52.9 ± 6.8	69.7 ± 5.1	52.9 ± 14
UAUUAAUACAUGUAAACCAAA	113 ± 20	106 ± 19	92.5 ± 11	90.7 ± 8.2
UACGACCACAUGUAAACCAAA	65 ± 13	47.6 ± 5.3	8.64 ± 0.94	31.7 ± 3.4
UGUCUUAACAUGUAAACCAAA	92.2 ± 16	61.7 ± 11	77 ± 8.9	67.4 ± 14
UAGUUAGACAUGUAAACCAAA	69.4 ± 7.9	57.9 ± 5.5	66 ± 4.8	54.9 ± 2.9
UUCCCACACAUGUAAACCAAA	82.6 ± 13	40.4 ± 4.9	41.4 ± 1.6	44.5 ± 4.7
UGGUUUAACAUGUAAACCAAA	100 ± 4.6	67.4 ± 9.1	118 ± 16	80.2 ± 14
UCCUAUCACAUGUAAACCAAA	58.9 ± 20	69.9 ± 10	72 ± 2.8	54.7 ± 7
UUGUCAUACAUGUAAACCAAA	56 ± 7.1	59.2 ± 2.5	62.1 ± 2.3	62.2 ± 11
UGAUGCUACAUGUAAACCAAA	13.9 ± 3.8	20.3 ± 0.36	3.65 ± 0.11	9.65 ± 1.4
UGCGAGAACAUGUAAACCAAA	87.4 ± 10	88.5 ± 7.6	75.3 ± 5.9	56.8 ± 1
UUUCGAUACAUGUAAACCAAA	107 ± 7.4	80.6 ± 21	101 ± 4.7	82.1 ± 11
UAGACGAACAUGUAAACCAAA	84.3 ± 9.3	76.8 ± 13	94.6 ± 9.7	61.7 ± 2.5
UGAACCGACAUGUAAACCAAA	93.7 ± 14	86.4 ± 16	85.6 ± 1	40.4 ± 2.2
UAUCGAUACAUGUAAACCAAA	95.4 ± 21	114 ± 12	102 ± 7.5	89.5 ± 11

Sequence	cell viability (3LL) [%]	cell viability (H460) [%]	cell viability (HeyA8) [%]	cell viability (M565) [%]
UUUGCACACAUGUAAACCAAA	65.1 ± 8.8	60.9 ± 0.96	72.8 ± 5.5	52.9 ± 4.2
UCUUGGUACAUGUAAACCAAA	91.2 ± 12	47.4 ± 1.1	48.7 ± 3.2	24.1 ± 4.7
UUUUGUCACAUGUAAACCAAA	85.3 ± 4.2	57.4 ± 5.6	76.3 ± 9.9	69.2 ± 7.9
UAAACCCACAUGUAAACCAAA	24.6 ± 3.9	72.9 ± 17	27.5 ± 7.5	19.6 ± 5.2
UUUGUGAACAUGUAAACCAAA	97.8 ± 12	64.3 ± 11	87.2 ± 6.5	57.9 ± 6.5
UCGCGAAACAUGUAAACCAAA	97 ± 17	84.3 ± 3.6	84.6 ± 3.2	75.7 ± 5.9
UGCUUGAACAUGUAAACCAAA	82.4 ± 12	61.1 ± 8.9	51.8 ± 3.3	73 ± 3
UUAAUUAACAUGUAAACCAAA	100 ± 13	74.2 ± 18	95.6 ± 8	105 ± 12
UAAGACAACAUGUAAACCAAA	90.5 ± 6.8	69.5 ± 5.8	92 ± 9.4	71.4 ± 1.5
UAGCGUGACAUGUAAACCAAA	79.9 ± 9.8	66.3 ± 4.1	83.7 ± 12	59.2 ± 18
UUAACUCACAUGUAAACCAAA	80.6 ± 5.4	68.2 ± 1.2	94 ± 7.6	85.5 ± 14
UACCUCGACAUGUAAACCAAA	83.4 ± 12	43.7 ± 5.1	90.1 ± 4.7	59 ± 7.2
UUAAUUUACAUGUAAACCAAA	93.5 ± 12	73.4 ± 18	78.2 ± 5.4	104 ± 9.6
UGCGAUGACAUGUAAACCAAA	84.1 ± 6	69.6 ± 5.8	74.1 ± 7.3	85.5 ± 2.1
UAUGUGCACAUGUAAACCAAA	35.4 ± 4.8	46.2 ± 6.5	85.6 ± 4	68.5 ± 7.3
UCUCUACACAUGUAAACCAAA	95.2 ± 12	40.3 ± 4.9	69.2 ± 4.5	50 ± 5.9
UUGUUGUACAUGUAAACCAAA	81.1 ± 7.1	51.5 ± 4	46.7 ± 6	36.4 ± 8.5
UAAAAAGACAUGUAAACCAAA	112 ± 11	71.5 ± 7.2	97.9 ± 6	94 ± 18
UCUCGCUACAUGUAAACCAAA	93 ± 18	42.1 ± 2.5	88.2 ± 5	68.3 ± 12

Sequence	cell viability (3LL) [%]	cell viability (H460) [%]	cell viability (HeyA8) [%]	cell viability (M565) [%]
UUGCUCCACAUGUAAACCAAA	17.4 ± 3.7	31.6 ± 2.8	49.7 ± 3.3	26.8 ± 3.7
UCGGACGACAUGUAAACCAAA	84.9 ± 19	55.6 ± 5.8	81.7 ± 6.4	53.6 ± 2.1
UCUUUGCACAUGUAAACCAAA	66.5 ± 9.6	48.2 ± 1.3	34.8 ± 2.9	68.6 ± 6.3
UCACGACACAUGUAAACCAAA	93.9 ± 13	22 ± 2.7	85 ± 6.3	59.4 ± 12
UUGUGGCACAUGUAAACCAAA	15.1 ± 5.5	56.7 ± 13	20.1 ± 2.6	58.4 ± 12
UCCAGACACAUGUAAACCAAA	60.2 ± 9.7	40.6 ± 4.2	47.5 ± 5.9	37.3 ± 8.5
UGACGUGACAUGUAAACCAAA	65.8 ± 8.8	60 ± 14	89.3 ± 2.2	20 ± 4.2
UAGGGGAACAUGUAAACCAAA	79.3 ± 4.7	62.6 ± 4.4	55.7 ± 7	20.2 ± 4.6
UGCCAUGACAUGUAAACCAAA	93.2 ± 13	52.3 ± 5.3	67.6 ± 7	39.6 ± 6.3
UCUGACAACAUGUAAACCAAA	94.2 ± 16	45.2 ± 2.8	86.6 ± 9.5	58.6 ± 6.9
UGGAUCAACAUGUAAACCAAA	51.6 ± 4	53.2 ± 11	48.3 ± 1.8	44.8 ± 6
UCACGGUACAUGUAAACCAAA	55.7 ± 14	14.8 ± 1.3	59.3 ± 3.1	48.2 ± 9.3
UGACAGUACAUGUAAACCAAA	2.33 ± 0.12	27 ± 4.9	10.2 ± 0.79	3.32 ± 0.45
UAAGCUAACAUGUAAACCAAA	82.3 ± 7.8	93.3 ± 28	88.2 ± 4	67.3 ± 6.9
UAUCUUUACAUGUAAACCAAA	86.7 ± 2.8	64.3 ± 2.2	82.3 ± 1.5	109 ± 17
UUCCGGGACAUGUAAACCAAA	49 ± 3.6	69.2 ± 3.4	71.7 ± 7.5	29.8 ± 6.2
UGCAGGCACAUGUAAACCAAA	32.5 ± 1.8	11.4 ± 2	2.6 ± 0.21	21.7 ± 0.57
UCGGUGGACAUGUAAACCAAA	47.8 ± 4.8	15.9 ± 3.4	7.23 ± 0.93	24 ± 4.1
UAGUUUGACAUGUAAACCAAA	78.6 ± 13	66 ± 6.7	67.4 ± 2.3	57.2 ± 4
